{"source": "PubChem BioAssay AID488969", "about": "(Vanderbilt High Throughput Screening Facility, 2010)", "note": "In all, about 110,000 compounds were measured (“z-score”: median about -0.1, highest 2% from about 2 on). The list shows a part of the results. Calls of active or inactive are those of the source.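 The calls were made as follows: active = z-score in the third read window above 3 or below -3; inactive = the rest.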"}
{"target": "Metabotropic glutamate receptor 8 (Rattus norvegicus) (UniProt P70579)", "sequence (P70579 whole entry, looked up)": "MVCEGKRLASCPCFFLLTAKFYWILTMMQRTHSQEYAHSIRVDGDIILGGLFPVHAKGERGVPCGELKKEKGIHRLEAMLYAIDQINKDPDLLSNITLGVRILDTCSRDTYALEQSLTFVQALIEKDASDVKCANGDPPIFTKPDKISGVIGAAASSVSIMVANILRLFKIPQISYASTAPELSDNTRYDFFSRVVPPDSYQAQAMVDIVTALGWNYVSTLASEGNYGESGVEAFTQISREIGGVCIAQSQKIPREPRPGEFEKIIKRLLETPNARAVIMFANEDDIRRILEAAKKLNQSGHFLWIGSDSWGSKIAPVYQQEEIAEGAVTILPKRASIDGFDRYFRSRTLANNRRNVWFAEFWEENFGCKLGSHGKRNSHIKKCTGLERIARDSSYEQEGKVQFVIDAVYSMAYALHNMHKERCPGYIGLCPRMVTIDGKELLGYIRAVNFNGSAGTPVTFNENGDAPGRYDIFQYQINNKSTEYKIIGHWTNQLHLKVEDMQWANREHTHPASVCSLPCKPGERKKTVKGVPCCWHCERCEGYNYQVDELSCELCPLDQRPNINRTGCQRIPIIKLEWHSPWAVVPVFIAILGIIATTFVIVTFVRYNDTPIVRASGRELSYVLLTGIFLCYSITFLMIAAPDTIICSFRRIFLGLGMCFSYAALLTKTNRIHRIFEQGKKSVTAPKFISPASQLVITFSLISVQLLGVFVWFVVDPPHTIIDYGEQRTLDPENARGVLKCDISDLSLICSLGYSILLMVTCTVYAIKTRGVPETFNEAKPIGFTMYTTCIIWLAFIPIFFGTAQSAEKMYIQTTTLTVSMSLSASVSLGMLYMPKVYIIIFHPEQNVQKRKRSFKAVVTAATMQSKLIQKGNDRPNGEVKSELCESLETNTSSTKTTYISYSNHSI", "assay": "mGluR8 Gi/Go-coupled signaling modulation – cell-based, rat, thallium flux, HTS, primary screen (AID 488969)", "conditions": "HEK293 rat mGluR8, GIRK (G protein-gated inwardly rectifying potassium channel) thallium flux, FluoZin2; at 10 µM; stronger effect = higher value; submaximal glutamate (EC20) added with thallium"}
{"smiles": "CCOC(=O)c1c(N2CCCCC2)c2ccccc2[nH]c1=O", "z-score": 0.155}
{"smiles": "CCN1CCN(Cc2c(O)ccc3c(=O)c(-c4ccccc4OC)coc23)CC1", "z-score": -0.589}
{"smiles": "C/C(=N\\Nc1ccc(S(=O)(=O)Nc2ccc(Cl)cc2)cc1[N+](=O)[O-])c1ccc(N2CCOCC2)cc1", "z-score": -0.0536}
{"smiles": "O=C(Nc1c(C(=O)Nc2ccc3c(c2)OCCO3)cnn1-c1ccccc1Cl)c1ccco1", "z-score": -0.203}
{"smiles": "Nc1nc(/C=C/c2ccc(F)cc2)nc(-c2ccccc2O)n1", "z-score": -0.255}
{"smiles": "O=C(CSc1nnc(CNc2ccc(F)cc2)n1Cc1ccccc1)NCc1ccccc1", "z-score": -0.225}
{"smiles": "Cn1cccc1Cc1nnc(SCC(=O)N2CCCCCC2)n1-c1ccc(F)cc1", "z-score": 2.24}
{"smiles": "CN1CCN(C(=O)c2ccccc2N(Cc2ccccc2)S(=O)(=O)c2ccccc2)CC1", "z-score": -0.185}
{"smiles": "CC(C)(C)C(=O)Nc1cccc(C(=O)c2cccc(NC(=O)C(C)(C)C)c2)c1", "z-score": -0.249}
{"smiles": "N#Cc1ccc(-c2ccc(OCC(=O)NCC(=O)Nc3ccc(F)c(F)c3F)cc2)cc1", "z-score": 0.143}
{"smiles": "CN1C(CC(=O)c2ccccc2)CCCC1CC(O)c1ccccc1", "note": "(centres undefined)", "z-score": 0.207}
{"smiles": "CCOc1ccc(S(=O)(=O)NCCC(=O)OCN2C(=O)c3ccccc3C2=O)cc1", "z-score": -1.07}
{"smiles": "CCOC(=O)Cc1csc(SCC(=O)NC2CCCC(C)C2C)n1", "note": "(centres undefined)", "z-score": -0.038}
{"smiles": "CCOC(=O)c1cc2c(ccn2-c2ccc(F)cc2)n1CC(=O)N1CCN(C(=O)c2ccco2)CC1", "z-score": 1.02}
{"smiles": "COc1ccc(NC2=NCC(=O)N2c2ccccc2F)cc1", "z-score": -0.144}
{"smiles": "COC(=O)c1cc2n(n1)CCN(Cc1ccc(F)cc1)C2=O", "z-score": 0.099}
{"smiles": "COc1ccccc1NC(=O)CSc1nnc(-c2ccc(NC(C)=O)cc2)n1C", "z-score": 1.33}
{"smiles": "CCOC(=O)c1ccccc1-n1c(C)cc(C2N=C(N)Nc3nc4ccccc4n32)c1C", "note": "(centres undefined)", "z-score": 0.131}
{"smiles": "CCCCc1ccc(NC(=S)Nc2ccc(Nc3ccc(OC)cc3)cc2)cc1", "z-score": -0.0123}
{"smiles": "COc1cc(/C=C2/C(=O)N(c3ccccc3)N=C2C)ccc1OS(=O)(=O)c1ccccc1", "z-score": -0.322}
{"smiles": "CCOc1ccc(-c2nnc(NC(=O)CCCOc3cccc(C)c3)o2)cc1", "z-score": "active: 3.62"}
{"smiles": "CCNC(=O)CSc1nc2ccccc2c(=O)n1OC", "z-score": -0.0268}
{"smiles": "Cc1ccccc1Nc1nc(-c2sc(NC(=O)c3cccc(Cl)c3)nc2C)cs1", "z-score": 0.186}
{"smiles": "COC(=O)Cc1ccc(NC(=S)NCCCO)cc1", "z-score": 0.00868}
{"smiles": "CCN(CC)S(=O)(=O)N1CCC(C(=O)NC2CCCc3ccccc32)CC1", "note": "(centres undefined)", "z-score": 0.111}
{"smiles": "CCCCc1cc(=O)oc2c(CN(C)C)c(O)ccc12", "z-score": 0.0624}
{"smiles": "CN(C)c1ccc(C(=O)c2ccc(N(C)C)c3ccccc23)cc1", "z-score": -0.192}
{"smiles": "CC(C)n1c(N2CCN(CC(=O)NCc3cccs3)CC2)nc2ccccc21", "z-score": -0.0505}
{"smiles": "CCCC(=O)Nc1ccc(C(=O)NCC(=O)OCC)cc1", "z-score": -0.417}
{"smiles": "CC1CCC2(CC1)NC(=O)N(CC(=O)Nc1ccc(N3CCOCC3)cc1)C2=O", "note": "(centres undefined)", "z-score": 0.0063}
{"smiles": "CN1CCN(NC(=O)CN2C(=O)/C(=C/c3c(Cl)cccc3Cl)SC2=S)CC1", "z-score": 1.28}
{"smiles": "CCN(c1ccccc1)S(=O)(=O)c1ccc(OC)c(NC(=O)CNCC(C)O)c1", "note": "(centres undefined)", "z-score": -0.146}
{"smiles": "Cc1ccc(-n2c(=O)c3sccc3n(Cc3cc(=O)n4ccccc4n3)c2=O)cc1F", "z-score": -0.784}
{"smiles": "N#Cc1c(/N=C/c2ccco2)sc2c1CCC2", "z-score": 0.351}
{"smiles": "OC(COc1cccc(OCC(O)CN2CCOCC2)c1)CN1CCOCC1", "note": "(centres undefined)", "z-score": -0.4}
{"smiles": "Cc1ccc(S(=O)(=O)NCc2ccc(C(=O)N(C)CCC#N)cc2)cc1", "z-score": 0.107}
{"smiles": "O=[N+]([O-])c1nn(-c2ccccc2)n(O)c1=NCc1ccc2c(c1)OCO2", "z-score": -0.00428}
{"smiles": "COc1ccc(N(CC(=O)Nc2cccc([N+](=O)[O-])c2C)S(C)(=O)=O)cc1OC", "z-score": -0.195}
{"smiles": "COc1cc(NC(=O)C2CCCN2S(=O)(=O)c2ccc3c(c2)CCC(=O)N3)cc(OC)c1", "note": "(centres undefined)", "z-score": -0.729}
{"smiles": "N#CCCN/N=C(/Cc1nc2ccccc2[nH]1)c1cccc(Cl)c1", "z-score": 0.373}
{"smiles": "COc1ccc(-c2cc(C(F)(F)F)nc(SCCC(=O)NCc3ccccc3)n2)cc1", "z-score": -0.43}
{"smiles": "CC[N+](CC)(CC)C/C=C/CN1CCCCC1", "z-score": -0.0395}
{"smiles": "Cc1ccc(-c2cccc(OC(=O)c3ccccc3F)c2)cc1", "z-score": 0.225}
{"smiles": "NNC(=O)c1nc(-c2ccccc2)n2c1CCCCC2", "z-score": -0.165}
{"smiles": "Cc1ccc(C(=O)O)cc1S(=O)(=O)N1CCCC1", "z-score": 2.05}
{"smiles": "Cc1ccc(Nc2nc(N)c([N+](=O)[O-])c(N3CCCC(C)C3)n2)cc1C", "note": "(centres undefined)", "z-score": 2.26}
{"smiles": "CCOc1ccc(NC(=O)C/C(N)=N/O)cc1", "z-score": 0.132}
{"smiles": "CC1=C(C#N)C(NC(=O)c2ccccc2Cl)(C(F)(F)F)C(=O)N1", "note": "(centres undefined)", "z-score": -0.497}
{"smiles": "COCc1nnc(NS(=O)(=O)c2ccc(NC(C)=O)cc2)s1", "z-score": -0.303}
{"smiles": "COc1ccc(C2SCCN2S(=O)(=O)c2ccc(F)cc2)cc1OC", "note": "(centres undefined)", "z-score": 0.291}
{"smiles": "O=C1CC(N2CCN(C3CCc4ccccc4C3)CC2)C(=O)N1c1ccccc1", "note": "(centres undefined)", "z-score": 0.156}
{"smiles": "N#C/C(=C/c1ccc(-c2ccc(S(N)(=O)=O)cc2)o1)c1nc2ccccc2s1", "z-score": -0.00234}
{"smiles": "CN(C)S(=O)(=O)Nc1ccc(C(=O)O)cc1", "z-score": -0.343}
{"smiles": "CCCCCNC(=O)C1CC=CCC1C(=O)O", "note": "(centres undefined)", "z-score": -0.161}
